Data from patent EP4714970A1 (Akeso Biopharma Co., Ltd., dated 2026).
Where two headings read alike, the source gives them in different places. Blank lines part the entries; values can stand above or below the binder they belong to.

Columns and labels:
[1] = target: T1, human LAG3-mG1Fc (human; mouse, UniProt P18627 23-450, limits assumed); assay: BLI (Fortebio), antigen on AMC sensor, antibody in solution, 30 C, 1:1 fit
T1 construct: Made by Akeso; also called huLAG3-mG1Fc; HuLAG3-mG1Fc; not shown: mouse IgG1 Fc (mG1Fc); limits not readable
T1 sequence (looked up): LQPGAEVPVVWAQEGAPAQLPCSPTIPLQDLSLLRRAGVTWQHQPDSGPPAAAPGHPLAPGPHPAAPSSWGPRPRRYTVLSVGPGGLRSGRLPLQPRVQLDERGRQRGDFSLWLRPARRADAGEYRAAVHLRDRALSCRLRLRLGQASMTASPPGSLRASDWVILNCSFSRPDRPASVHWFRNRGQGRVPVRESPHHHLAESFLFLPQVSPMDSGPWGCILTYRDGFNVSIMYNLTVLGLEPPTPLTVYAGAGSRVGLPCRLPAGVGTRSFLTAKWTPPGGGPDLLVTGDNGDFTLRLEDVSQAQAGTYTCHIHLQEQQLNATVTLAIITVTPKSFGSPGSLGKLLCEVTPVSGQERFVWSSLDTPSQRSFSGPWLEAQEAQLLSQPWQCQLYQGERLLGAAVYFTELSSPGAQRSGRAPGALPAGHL

[2] = target: T2, hNT5E(1-552)-His (human, UniProt P21589 27-552); assay: BLI (Fortebio), antigen on HIS1K sensor, antibody in solution, 37 C, 1:1 fit
T2 construct: also called NT5E-His; not shown: His tag
T2 sequence (looked up): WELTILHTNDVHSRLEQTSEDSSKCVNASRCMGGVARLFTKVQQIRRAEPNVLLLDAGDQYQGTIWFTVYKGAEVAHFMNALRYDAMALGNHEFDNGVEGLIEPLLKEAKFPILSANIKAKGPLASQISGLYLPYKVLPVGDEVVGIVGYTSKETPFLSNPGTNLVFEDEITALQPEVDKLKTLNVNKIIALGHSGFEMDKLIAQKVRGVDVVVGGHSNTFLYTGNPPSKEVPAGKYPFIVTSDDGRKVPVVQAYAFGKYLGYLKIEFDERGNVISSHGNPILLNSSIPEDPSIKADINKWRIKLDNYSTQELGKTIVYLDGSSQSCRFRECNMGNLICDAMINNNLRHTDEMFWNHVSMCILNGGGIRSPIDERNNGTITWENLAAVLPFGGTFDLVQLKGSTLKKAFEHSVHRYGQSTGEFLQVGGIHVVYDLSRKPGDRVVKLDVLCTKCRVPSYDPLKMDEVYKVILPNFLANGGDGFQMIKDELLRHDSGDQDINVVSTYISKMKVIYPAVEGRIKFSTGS

[3] = target: T1, human LAG3-mG1Fc; assay: ELISA, huLAG3-mG1Fc coated 2 ug/mL
[4] = target: T2, hNT5E(1-552)-His; assay: ELISA, NT5E-His coated 1 ug/mL
[5] = target: T3, CD73 on U87-MG cell membrane surface (UniProt P21589 27-549, limits assumed); assay: cell-based or functional assay
T3 sequence (looked up): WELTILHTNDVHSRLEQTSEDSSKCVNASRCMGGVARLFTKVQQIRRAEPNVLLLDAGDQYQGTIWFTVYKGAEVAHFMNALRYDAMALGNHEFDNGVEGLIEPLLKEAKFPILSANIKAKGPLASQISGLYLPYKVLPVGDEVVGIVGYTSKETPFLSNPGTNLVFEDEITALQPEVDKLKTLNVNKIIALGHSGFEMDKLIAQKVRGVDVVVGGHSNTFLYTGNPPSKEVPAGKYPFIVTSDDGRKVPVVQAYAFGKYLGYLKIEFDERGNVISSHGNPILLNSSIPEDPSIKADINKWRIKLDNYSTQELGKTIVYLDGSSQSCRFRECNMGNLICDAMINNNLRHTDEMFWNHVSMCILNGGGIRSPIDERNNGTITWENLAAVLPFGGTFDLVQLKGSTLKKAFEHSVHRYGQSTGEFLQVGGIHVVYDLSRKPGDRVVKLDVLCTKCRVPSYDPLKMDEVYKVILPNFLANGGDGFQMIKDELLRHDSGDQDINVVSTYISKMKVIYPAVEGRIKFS

[6] = target: T2, hNT5E(1-552)-His; assay: ELISA, NT5E-His coated 1 ug/mL; remark: listed apart in the source
[7] = target: T1, human LAG3-mG1Fc; assay: ELISA, huLAG3-mG1Fc coated 2 ug/mL; remark: listed apart in the source

Kd [1]: 1.04 nM
Maximum signal height of analyte (nm) [1]: 0.817 nm
S E (kdis) [1]: 3.11e-06 s⁻¹
S E (kon) [1]: 1680 M⁻¹ s⁻¹
koff [1]: 0.000309 s⁻¹
kon [1]: 298000 M⁻¹ s⁻¹
Kd [2]: 0.322 nM
Maximum signal height of analyte (nm) [2]: 0.227 nm
S E (kdis) [2]: 3.15e-06 s⁻¹
S E (kon) [2]: 1390 M⁻¹ s⁻¹
koff [2]: 0.000125 s⁻¹
kon [2]: 388000 M⁻¹ s⁻¹
EC50 [3]: 0.158 nM
EC50 [4]: 0.036 nM
B1: NTLAV7(hG1TM) (bispecific antibody, human IgG1, kappa)
heavy: QVQLVQSGAEVVKPGASVKVSCKASGYSFTGYTMNWVRQAPGQNLEWIGLINPYNAGTSYNQKFQGKVTLTVDKSTSTAYMELSSLRSEDTAVYYCARSEYRYGGDYFDYWGQGTTLTVSSASTKGPSVFPLAPSSKSTSGGTAALGCLVKDYFPEPVTVSWNSGALTSGVHTFPAVLQSSGLYSLSSVVTVPSSSLGTQTYICNVNHKPSNTKVDKKV[letters of human IgG1 Fc with L234A L235A G237A (EU numbers) omitted]GGGGSGGGGSGGGGSQVQLQQWGAGLLKPSETLSLTCAVYGGSISDYYWNWIRQPPGKGLEWIGEINYRGTTNSNPSLKSRVTLSLDTSKNQFSLKLRSVTAADTAVYYCAFGYSDYEYDWFDPWGQGTLVTVSSGGGGSGGGGSGGGGSGGGGSEIVLTQSPATLSLSPGERATLSCRASQTISSYLAWYQQKPGQAPRLLIYDASNRATGIPARFSGSGSGTDFTLTISSLEPEDFAVYYCQQRSNWPITFGQGTNLEIK
light: DIVMTQSPSSLAVSVGERVTISCKSSQSLLNSSNQKNYLAWYQQKPGQAPKLLIYFASTRESGVPDRFSGSGSGTDFTLTISSLQAEDVAVYYCQQHYDTPYTFGGGTKLEIKRTVAAPSVFIFPPSDEQLKSGTASVVCLLNNFYPREAKVQWKVDNALQSGNSQESVTEQDSKDSTYSLSSTLTLSKADYEKHKVYACEVTHQGLSSPVTKSFNRGEC
notes: IgG-scFv (Morrison format)

Kd [1]: 1.23 nM
Maximum signal height of analyte (nm) [1]: 0.814 nm
S E (kdis) [1]: 3.08e-06 s⁻¹
S E (kon) [1]: 2470 M⁻¹ s⁻¹
koff [1]: 0.000535 s⁻¹
kon [1]: 436000 M⁻¹ s⁻¹
Kd [2]: 0.408 nM
Maximum signal height of analyte (nm) [2]: 0.201 nm
S E (kdis) [2]: 3.22e-06 s⁻¹
S E (kon) [2]: 1230 M⁻¹ s⁻¹
koff [2]: 0.000137 s⁻¹
kon [2]: 335000 M⁻¹ s⁻¹
EC50 [3]: 0.173 nM
EC50 [4]: 0.037 nM
EC50 (nM), inhibition of CD73 enzyme activity on U87-MG cells [5]: 0.94 nM
Maximum inhibition rate (%) of CD73 enzyme activity on U87-MG cells [5]: 98.2%
B2: NTLAV2(hG1TM) (bispecific antibody, human IgG1, kappa)
heavy: QVQLVQSGAEVVKPGASVKVSCKASGYSFTGYTMNWVRQAPGQNLEWIGLINPYNAGTSYNQKFQGKVTLTVDKSTSTAYMELSSLRSEDTAVYYCARSEYRYGGDYFDYWGQGTTLTVSSASTKGPSVFPLAPSSKSTSGGTAALGCLVKDYFPEPVTVSWNSGALTSGVHTFPAVLQSSGLYSLSSVVTVPSSSLGTQTYICNVNHKPSNTKVDKKV[letters of human IgG1 Fc with L234A L235A G237A (EU numbers) omitted]GGGGSGGGGSGGGGSGGGGSQVQLQQWGAGLLKPSETLSLTCAVYGGSISDYYWNWIRQPPGKCLEWIGEINYRGTTNSNPSLKSRVTLSLDTSKNQFSLKLRSVTAADTAVYYCAFGYSDYEYDWFDPWGQGTLVTVSSGGGGSGGGGSGGGGSGGGGSEIVLTQSPATLSLSPGERATLSCRASQTISSYLAWYQQKPGQAPRLLIYDASNRATGIPARFSGSGSGTDFTLTISSLEPEDFAVYYCQQRSNWPITFGCGTNLEIK
light: B1 light
notes: IgG-scFv (Morrison format)

Kd [1]: 0.125 nM
Maximum signal height of analyte (nm) [1]: 0.994 nm
S E (kdis) [1]: 2.68e-06 s⁻¹
S E (kon) [1]: 3300 M⁻¹ s⁻¹
koff [1]: 7.46e-05 s⁻¹
kon [1]: 598000 M⁻¹ s⁻¹
Kd [2]: 0.793 nM
Maximum signal height of analyte (nm) [2]: 0.274 nm
S E (kdis) [2]: 2.64e-06 s⁻¹
koff [2]: 0.00046 s⁻¹
kon [2]: 579000 M⁻¹ s⁻¹
EC50 [6]: 0.036 nM
EC50 [7]: 0.043 nM
B3: LA5EV1(hG1TM) (bispecific antibody, human IgG1, kappa)
heavy: QVQLQQWGAGLLKPSETLSLTCAVYGGSISDYYWNWIRQPPGKGLEWIGEINYRGTTNSNPSLKSRVTLSLDTSKNQFSLKLRSVTAADTAVYYCAFGYSDYEYDWFDPWGQGTLVTVSSASTKGPSVFPLAPSSKSTSGGTAALGCLVKDYFPEPVTVSWNSGALTSGVHTFPAVLQSSGLYSLSSVVTVPSSSLGTQTYICNVNHKPSNTKVDKKV[letters of human IgG1 Fc with L234A L235A G237A (EU numbers) omitted]GGGGSGGGGSGGGGSGGGGSQVQLVQSGAEVVKPGASVKVSCKASGYSFTGYTMNWVRQAPGQNLEWIGLINPYNAGTSYNQKFQGKVTLTVDKSTSTAYMELSSLRSEDTAVYYCARSEYRYGGDYFDYWGQGTTLTVSSGGGGSGGGGSGGGGSGGGGSDIVMTQSPSSLAVSVGERVTISCKSSQSLLNSSNQKNYLAWYQQKPGQAPKLLIYFASTRESGVPDRFSGSGSGTDFTLTISSLQAEDVAVYYCQQHYDTPYTFGGGTKLEIKR
light: EIVLTQSPATLSLSPGERATLSCRASQTISSYLAWYQQKPGQAPRLLIYDASNRATGIPARFSGSGSGTDFTLTISSLEPEDFAVYYCQQRSNWPITFGQGTNLEIKRTVAAPSVFIFPPSDEQLKSGTASVVCLLNNFYPREAKVQWKVDNALQSGNSQESVTEQDSKDSTYSLSSTLTLSKADYEKHKVYACEVTHQGLSSPVTKSFNRGEC
notes: IgG-scFv (Morrison format), scFv at the C-terminus of each heavy chain; Tested as the hG1TM form (L234A, L235A, G237A); also called LASEV1; LASEV1(hG1TM)
